For 102 sequences, TetR repression strength results are on record in a collection of fitness landscapes (doi:10.1038/s41467-024-54723-y).

Over roughly 18,000 sequences, “TetR repression strength (sort-seq, GFP reporter)” has its median near 0.23; the highest 2% begin near 0.68. Some of the results follow.

Sequence of UniProt P04483 (P04483 whole entry): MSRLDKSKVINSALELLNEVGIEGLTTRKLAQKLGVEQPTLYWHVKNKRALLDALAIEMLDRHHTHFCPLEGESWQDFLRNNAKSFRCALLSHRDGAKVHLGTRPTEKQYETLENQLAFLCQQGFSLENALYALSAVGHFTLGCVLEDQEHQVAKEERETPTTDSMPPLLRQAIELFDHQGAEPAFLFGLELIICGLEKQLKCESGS

The target of this assay is TetR (class B, Tn10) (UniProt P04483). The assay can be described thus: TetR repression strength (sort-seq, GFP reporter) (relative to tetO2 = 1); higher = stronger repression. As to conditions: E. coli. In short, it runs like this:
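Repression strength is the top bin index plus one minus the read-weighted mean bin, relative to the unaltered operator's value. A low-copy library in E. coli SIG10-MAX randomized eight operator positions between a constitutive promoter and sfGFP, with TetR expressed constitutively; cells grew 5 h at 37 °C in LB with 50 µg/mL chloramphenicol and 10^6 were FACS-sorted into 13 bins that were each Illumina-sequenced. Three independent transformations were averaged, keeping only members with ≥30 reads in all replicates and CV ≤0.5.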
For TCCCGAGAAGTGGCGGAGA, the TetR repression strength amounted to 0.305.

The sequence TCCCAGTTAGTGCCCGAGA registered a TetR repression strength of 0.338.

Sequence TCCCTTAAAGTACAGGAGA had a TetR repression strength of 0.125.

In turn, TCCCGGAGAGTTCTCGAGA had a TetR repression strength of 0.127.

Sequence TCCCTGGGAGTCAATGAGA returned a TetR repression strength of 0.541.

As for TCCCGTTCAGTTCGGGAGA, the TetR repression strength stood at 0.258.

On to TCCCGGTTAGTTAACGAGA, for which the TetR repression strength came out at 0.185.

TCCCTTGAAGTGTAAGAGA displayed a TetR repression strength of 0.117.

As for TCCCCCGCAGTAGGTGAGA, the TetR repression strength stood at 0.174.

TCCCACCCAGTAGCAGAGA returned a TetR repression strength of 0.382.

Take TCCCTTGTAGTTTGTGAGA: the TetR repression strength turned out to be 0.319.

Turning to TCCCAGCGAGTGCGAGAGA, the TetR repression strength came to 0.275.

The sequence TCCCATGAAGTACGCGAGA had a TetR repression strength of 0.151.

The sequence TCCCCTTAAGTGTACGAGA came in with a TetR repression strength of 0.333.

As to TCCCCCTTAGTCGAGGAGA, the TetR repression strength is 0.392.

For TCCCTGGGAGTGATGGAGA, the TetR repression strength is 0.107.

With TCCCGTAGAGTGGTGGAGA, the TetR repression strength was found to be 0.152.

With TCCCATGAAGTCAGAGAGA, the TetR repression strength came to 0.231.

On to TCCCTTCTAGTGCTGGAGA, for which the TetR repression strength worked out at 0.623.

In the case of TCCCTCCGAGTGGTTGAGA, the TetR repression strength came out at 0.0968.

Take TCCCGGATAGTGGGAGAGA: the TetR repression strength turned out to be 0.318.

In turn, TCCCCAGCAGTGATAGAGA showed a TetR repression strength of 0.186.

TCCCTCATAGTGTATGAGA yielded a TetR repression strength of 0.289.

Turning to TCCCGATAAGTTGGTGAGA, the TetR repression strength worked out at 0.376.

With TCCCCACAAGTCGTCGAGA, the TetR repression strength came out at 0.226.

The sequence TCCCAGCTAGTGGTAGAGA gave a TetR repression strength of 0.306.

As to TCCCCAGGAGTGGTGGAGA, the TetR repression strength came to 0.223.

Sequence TCCCAAGCAGTGGAGGAGA yielded a TetR repression strength of 0.121.

TCCCGTGGAGTGGCCGAGA: the TetR repression strength worked out at 0.159.

With TCCCGATGAGTGATTGAGA, the TetR repression strength stood at 0.423.

For the sequence TCCCGCAGAGTAGTTGAGA, the TetR repression strength is 0.

On to TCCCAGGTAGTCAGAGAGA, for which the TetR repression strength stood at 0.18.

For the sequence TCCCACAAAGTTTAAGAGA, the TetR repression strength was 0.298.

TCCCGAGCAGTGATAGAGA showed a TetR repression strength of 0.75.

On to TCCCAGACAGTATTTGAGA, for which the TetR repression strength turned out to be 0.274.

TCCCCTACAGTGCAAGAGA registered a TetR repression strength of 0.367.

Consider TCCCTGCCAGTCCGTGAGA, for which the TetR repression strength came out at 0.378.

TCCCCGGGAGTGCAGGAGA: the TetR repression strength is 0.076.

As for TCCCTCACAGTCCATGAGA, the TetR repression strength is 0.0897.

For the sequence TCCCACTCAGTACACGAGA, the TetR repression strength came out at 0.212.

On to TCCCGTTGAGTGAAGGAGA, for which the TetR repression strength stood at 0.266.

TCCCCTATAGTCTTAGAGA had a TetR repression strength of 0.285.

TCCCTCACAGTGGCTGAGA registered a TetR repression strength of 0.253.

Turning to TCCCATGTAGTATATGAGA, the TetR repression strength was 0.156.

TCCCAGGGAGTGCACGAGA displayed a TetR repression strength of 0.128.

As for TCCCGCGAAGTAAGTGAGA, the TetR repression strength turned out to be 0.29.

TCCCATAAAGTCCTTGAGA registered a TetR repression strength of 0.279.

Sequence TCCCCTAAAGTCTGGGAGA registered a TetR repression strength of 0.162.

On to TCCCCGAAAGTCGCGGAGA, for which the TetR repression strength amounted to 0.128.

TCCCCGTGAGTGGCCGAGA: the TetR repression strength was found to be 0.153.

TCCCTTGTAGTGAGTGAGA yielded a TetR repression strength of 0.148.

Consider TCCCCTGGAGTGGCGGAGA, for which the TetR repression strength was found to be 0.13.

TCCCTGGAAGTATGGGAGA yielded a TetR repression strength of 0.279.

TCCCGGAAAGTGAATGAGA showed a TetR repression strength of 0.518.

In the case of TCCCACGTAGTGACCGAGA, the TetR repression strength was determined as 0.235.

As to TCCCGGCAAGTCGGAGAGA, the TetR repression strength was determined as 0.512.

The sequence TCCCGAGAAGTTATTGAGA yielded a TetR repression strength of 0.0542.

Take TCCCGAGAAGTAACCGAGA: the TetR repression strength was found to be 0.189.

In the case of TCCCCAAGAGTCGACGAGA, the TetR repression strength was determined as 0.264.

Regarding TCCCACTGAGTCACCGAGA, the TetR repression strength was determined as 0.428.

Sequence TCCCGTGTAGTGTATGAGA showed a TetR repression strength of 0.281.

For the sequence TCCCTGGTAGTGCAAGAGA, the TetR repression strength stood at 0.597.

In turn, TCCCTCTAAGTGGGTGAGA showed a TetR repression strength of 0.123.

TCCCGCCAAGTCGAAGAGA registered a TetR repression strength of 0.26.

TCCCGAGTAGTCTGGGAGA: the TetR repression strength is 0.357.

Regarding TCCCTAGGAGTCTGCGAGA, the TetR repression strength was 0.265.

TCCCTAGTAGTGCACGAGA returned a TetR repression strength of 0.0915.

For the sequence TCCCAACAAGTGCTGGAGA, the TetR repression strength turned out to be 0.331.

In turn, TCCCACCGAGTAATTGAGA yielded a TetR repression strength of 0.284.

On to TCCCCGACAGTTCGTGAGA, for which the TetR repression strength was determined as 0.16.

With TCCCCGGGAGTGGGGGAGA, the TetR repression strength stood at 0.258.

Consider TCCCAGTGAGTGCGAGAGA, for which the TetR repression strength stood at 0.527.

For TCCCGGTAAGTAGGAGAGA, the TetR repression strength worked out at 0.229.

TCCCTGTAAGTGCGTGAGA displayed a TetR repression strength of 0.162.

For the sequence TCCCTTTAAGTCGACGAGA, the TetR repression strength worked out at 0.285.

As for TCCCAGCCAGTGGGGGAGA, the TetR repression strength was determined as 0.226.

TCCCGAGAAGTGTAAGAGA registered a TetR repression strength of 0.301.

Sequence TCCCTGTGAGTCACTGAGA registered a TetR repression strength of 0.219.

In the case of TCCCAATCAGTCCAGGAGA, the TetR repression strength came to 0.514.

Regarding TCCCTGTTAGTGATAGAGA, the TetR repression strength was 0.428.

TCCCGAGTAGTGTCGGAGA returned a TetR repression strength of 0.0933.

For the sequence TCCCGACCAGTGGCAGAGA, the TetR repression strength was found to be 0.261.

The sequence TCCCAGCAAGTGGCTGAGA yielded a TetR repression strength of 0.197.

TCCCCATGAGTGGTTGAGA returned a TetR repression strength of 0.174.

For the sequence TCCCCTAAAGTGTCCGAGA, the TetR repression strength came out at 0.358.

As to TCCCTCAAAGTAGTCGAGA, the TetR repression strength was 0.288.

As to TCCCGAGTAGTCTATGAGA, the TetR repression strength turned out to be 0.259.

In turn, TCCCGATAAGTAGTCGAGA had a TetR repression strength of 0.335.

TCCCAGTTAGTTCTCGAGA displayed a TetR repression strength of 0.446.

In turn, TCCCTGCCAGTGAATGAGA gave a TetR repression strength of 0.344.

TCCCGAGGAGTTCCAGAGA returned a TetR repression strength of 0.316.

TCCCGACTAGTAGTGGAGA: the TetR repression strength stood at 0.2.

TCCCTTCTAGTGACAGAGA gave a TetR repression strength of 0.406.

TCCCTATGAGTCGCAGAGA returned a TetR repression strength of 0.226.

Consider TCCCAGGCAGTGATAGAGA, for which the TetR repression strength is 0.589.

In turn, TCCCTAGTAGTTAGGGAGA had a TetR repression strength of 0.192.

The sequence TCCCAACTAGTGGCCGAGA had a TetR repression strength of 0.397.

With TCCCGACTAGTTACAGAGA, the TetR repression strength turned out to be 0.305.

As for TCCCCGATAGTGCGAGAGA, the TetR repression strength amounted to 0.125.

As for TCCCTACGAGTATATGAGA, the TetR repression strength amounted to 0.269.

The sequence TCCCATATAGTTGCAGAGA had a TetR repression strength of 0.315.

TCCCTGTTAGTTGTTGAGA yielded a TetR repression strength of 0.382.
